Assay results taken from the supplement of paper PMC5919970.
Structures can show the parent of a compound that is named as a salt. In all, about 2,000 compounds were measured (“fractional viability relative to vehicle”: median about 0.91, lowest 2% from about 0.045 on). The list shows a part of the results.

Test system: TYKNU
Experiment: fractional viability relative to vehicle; TYKNU is a high-grade serous ovarian cancer line; higher = less growth inhibition
Settings: 72 h
Procedure, shortened: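 TYKNU control cells or lentiCRISPRv2 knockout derivatives were plated at 500 cells per well in duplicate into drug-stamped 384-well plates holding a ~2100-compound library at 2 or 10 μM. Culture was in RPMI 1640 with 10% FBS at 37 °C in 5% CO2, with 72 h of drug treatment. Viability was measured by Cell Titer Glo luminescence, and the averaged duplicate treatment wells were normalised to duplicate control wells at the same plate position.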

[1] = 2uM, genotype: DNM1L knockout (sgDNM1L #1)
[2] = 2uM, genotype: sgCTRLA1 (non-targeting control)
[3] = 10uM, genotype: DNM1L knockout (sgDNM1L #1)
[4] = 10uM, genotype: sgCTRLA1 (non-targeting control)

CCc1cccc2c3c([nH]c12)C(CC)(CC(=O)O)OCC3 (stereo not given) [Etodolac]
fractional viability [1]: 0.996 | fractional viability [2]: 1.21 | fractional viability [3]: 0.863 | fractional viability [4]: 1.21

CCOC(=O)[C@H](CCc1ccccc1)N[C@@H](C)C(=O)N1CCC[C@H]1C(=O)O [Enalapril Maleate]
fractional viability [1]: 0.858 | fractional viability [2]: 1.24 | fractional viability [3]: 0.86 | fractional viability [4]: 1.01

CNC(=O)[C@H](Cc1ccccc1)NC(=O)[C@H](CC(C)C)[C@H](CSc1cccs1)C(=O)NO [Batimastat (BB-94)]
fractional viability [1]: 0.826 | fractional viability [2]: 0.964 | fractional viability [3]: 0.539 | fractional viability [4]: 0.703

CC[C@@H]1/C=C(\C)C[C@H](C)C[C@H](OC)[C@H]2O[C@@](O)(C(=O)C(=O)N3CCCC[C@H]3C(=O)O[C@H](/C(C)=C/[C@@H]3CC[C@H](Cl)[C@H](OC)C3)[C@H](C)[C@@H](O)CC1=O)[C@H](C)C[C@@H]2OC [Pimecrolimus]
fractional viability [1]: 0.579 | fractional viability [2]: 0.945 | fractional viability [3]: 0.276 | fractional viability [4]: 0.594

COC[C@H](NC(=O)c1cnc(C)s1)C(=O)N[C@@H](COC)C(=O)N[C@@H](Cc1ccccc1)C(=O)[C@@]1(C)CO1 [Oprozomib (ONX 0912)]
fractional viability [1]: 0.0658 | fractional viability [2]: 0.0656 | fractional viability [3]: 0.055 | fractional viability [4]: 0.0445

CCCCC(=O)N(Cc1ccc(-c2ccccc2-c2nnn[nH]2)cc1)[C@H](C(=O)O)C(C)C.CCOC(=O)[C@H](C)C[C@@H](Cc1ccc(-c2ccccc2)cc1)NC(=O)CCC(=O)O
fractional viability [1]: 0.864 | fractional viability [2]: 0.941 | fractional viability [3]: 0.769 | fractional viability [4]: 0.732

Cc1cc(Nc2nc(N[C@@H](C)c3ncc(F)cn3)ncc2Cl)[nH]n1
fractional viability [1]: 0.835 | fractional viability [2]: 0.944 | fractional viability [3]: 0.742 | fractional viability [4]: 0.599

OC[C@H]1O[C@@H](O[C@@H]2[C@@H](CO)OC(O)(CO)[C@H]2O)[C@H](O)[C@@H](O)[C@H]1O (mixture of isomers) [Lactulose]
fractional viability [1]: 1.05 | fractional viability [2]: 1.01 | fractional viability [3]: 1.04 | fractional viability [4]: 1.18

CN(C)[C@@H]1C(O)=C(C(N)=O)C(=O)[C@@]2(O)C(O)=C3C(=O)c4c(O)ccc(Cl)c4[C@@H](O)[C@H]3C[C@@H]12 [Demeclocycline HCl]
fractional viability [1]: 1.14 | fractional viability [2]: 1.31 | fractional viability [3]: 0.778 | fractional viability [4]: 0.995

O=C(O)CC1CC(c2ccccc2)=NO1 (stereo not given)
fractional viability [1]: 0.902 | fractional viability [2]: 0.982 | fractional viability [3]: 0.914 | fractional viability [4]: 0.786

CCN(c1cc(-c2ccc(CN3CCOCC3)cc2)cc(C(=O)NCc2c(C)cc(C)[nH]c2=O)c1C)C1CCOCC1
fractional viability [1]: 0.87 | fractional viability [2]: 1.1 | fractional viability [3]: 0.687 | fractional viability [4]: 0.961

Cn1c([N+](=O)[O-])cnc1COC(N)=O [Ronidazole]
fractional viability [1]: 1.74 | fractional viability [2]: 1.2 | fractional viability [3]: 1.58 | fractional viability [4]: 1.21

CN(CCOc1ccc(CC2SC(=O)NC2=O)cc1)c1ccccn1 (stereo not given) [Rosiglitazone]
fractional viability [1]: 0.942 | fractional viability [2]: 1.1 | fractional viability [3]: 0.909 | fractional viability [4]: 1.01

CN(CCOc1ccc(CC2SC(=O)NC2=O)cc1)c1ccccn1 (stereo not given) [Rosiglitazone HCl]
fractional viability [1]: 0.999 | fractional viability [2]: 1.06 | fractional viability [3]: 0.98 | fractional viability [4]: 1.04

CN(CCOc1ccc(CC2SC(=O)NC2=O)cc1)c1ccccn1 (stereo not given) [Rosiglitazone maleate]
fractional viability [1]: 0.971 | fractional viability [2]: 1.1 | fractional viability [3]: 0.833 | fractional viability [4]: 1.04

CCOC(=O)c1c(C)n(C)c2ccc(O)cc12 [Mecarbinate]
fractional viability [1]: 1.01 | fractional viability [2]: 1.18 | fractional viability [3]: 0.891 | fractional viability [4]: 1.09

COc1ccc(C[C@@H]2c3cc(OC)c(OC)cc3CC[N@+]2(C)CCC(=O)OCCCCCOC(=O)CC[N@@+]2(C)CCc3cc(OC)c(OC)cc3[C@H]2Cc2ccc(OC)c(OC)c2)cc1OC [Cisatracurium Besylate]
fractional viability [1]: 0.944 | fractional viability [2]: 1.02 | fractional viability [3]: 0.738 | fractional viability [4]: 0.918

Fc1cc(-c2cccc3ncc(-c4cnn(C5CCNCC5)c4)nc23)cc(F)c1CN1CCOCC1
fractional viability [1]: 0.752 | fractional viability [2]: 0.934 | fractional viability [3]: 0.0836 | fractional viability [4]: 0.0828

CC(N)C12CC3CC(CC(C3)C1)C2 (stereo not given) [Rimantadine]
fractional viability [1]: 0.969 | fractional viability [2]: 1.09 | fractional viability [3]: 0.803 | fractional viability [4]: 0.978

C[C@H](Oc1cc(-c2cnn(C3CCNCC3)c2)cnc1N)c1c(Cl)ccc(F)c1Cl [(S)-crizotinib]
fractional viability [1]: 0.732 | fractional viability [2]: 0.725 | fractional viability [3]: 0.134 | fractional viability [4]: 0.0936

CN(C)CCOC(=O)COc1ccc(Cl)cc1 [Meclofenoxate (Centrophenoxine) HCl]
fractional viability [1]: 0.925 | fractional viability [2]: 1.23 | fractional viability [3]: 0.853 | fractional viability [4]: 1.25

Brc1c(NC2=NCCN2)ccc2nccnc12 [Brimonidine Tartrate]
fractional viability [1]: 0.978 | fractional viability [2]: 1.12 | fractional viability [3]: 0.889 | fractional viability [4]: 1.09

NCc1c[nH]c(=S)n1[C@@H]1CCc2c(F)cc(F)cc2C1 [(R)-Nepicastat HCl]
fractional viability [1]: 0.808 | fractional viability [2]: 1.17 | fractional viability [3]: 0.847 | fractional viability [4]: 1

Cc1ccc2c(Cl)cc(Cl)c(O)c2n1 [Chlorquinaldol]
fractional viability [1]: 0.458 | fractional viability [2]: 0.733 | fractional viability [3]: 0.261 | fractional viability [4]: 0.305

N=C(N)N/N=C/c1c(Cl)cccc1Cl [Guanabenz Acetate]
fractional viability [1]: 0.975 | fractional viability [2]: 1.14 | fractional viability [3]: 0.845 | fractional viability [4]: 1.05

CCCCC[C@H](O)/C=C/[C@H]1[C@H](O)CC(=O)[C@@H]1CCCCCCC(=O)O [Alprostadil]
fractional viability [1]: 0.953 | fractional viability [2]: 0.991 | fractional viability [3]: 0.888 | fractional viability [4]: 1.07

NC1=N[C@@](c2cccc(-c3cncnc3)c2)(c2ccnc(C(F)F)c2)c2cccc(F)c21
fractional viability [1]: 0.851 | fractional viability [2]: 1.01 | fractional viability [3]: 0.765 | fractional viability [4]: 0.736

CC[C@@H]([C@H](C)O)n1ncn(-c2ccc(N3CCN(c4ccc(OC[C@@H]5CO[C@@](Cn6cncn6)(c6ccc(F)cc6F)C5)cc4)CC3)cc2)c1=O [Posaconazole]
fractional viability [1]: 0.919 | fractional viability [2]: 1.13 | fractional viability [3]: 0.868 | fractional viability [4]: 1.05

O=C(O)c1ccccc1 [Benzoic Acid]
fractional viability [1]: 0.793 | fractional viability [2]: 0.98 | fractional viability [3]: 0.581 | fractional viability [4]: 0.958

O=C(c1ccc(OCCCc2c[nH]cn2)cc1)C1CC1 [Ciproxifan]
fractional viability [1]: 1.29 | fractional viability [2]: 1.22 | fractional viability [3]: 1.12 | fractional viability [4]: 1.12

CC(C)[C@H](N)C(=O)OCC(CO)OCn1cnc2c(=O)[nH]c(N)nc21 (stereo not given in full) [Valganciclovir HCl]
fractional viability [1]: 0.99 | fractional viability [2]: 1.1 | fractional viability [3]: 0.78 | fractional viability [4]: 0.988

CN1CCC[C@@H]1CCO[C@](C)(c1ccccc1)c1ccc(Cl)cc1 [Clemastine Fumarate]
fractional viability [1]: 0.829 | fractional viability [2]: 1.1 | fractional viability [3]: 0.515 | fractional viability [4]: 0.619

CCOc1ccc(NC(C)=O)cc1 [Phenacetin]
fractional viability [1]: 1.08 | fractional viability [2]: 1.06 | fractional viability [3]: 0.828 | fractional viability [4]: 1.01

COc1cc2ncnc(Nc3ccc(F)c(Cl)c3)c2cc1OCCCN1CCOCC1 [Gefitinib (ZD1839)]
fractional viability [1]: 1 | fractional viability [2]: 1.11 | fractional viability [3]: 0.492 | fractional viability [4]: 0.555

CN1CCN(c2nc(C3=C(c4c[nH]c5ccccc45)C(=O)NC3=O)c3ccccc3n2)CC1 [Sotrastaurin]
fractional viability [1]: 1.03 | fractional viability [2]: 1.06 | fractional viability [3]: 0.516 | fractional viability [4]: 0.919
